# Measurements from the supplement of paper PMC4604168 (melanoma cell lines).
# Some of the results follow. Most values come without repeats; read them as rough.
# What was measured:
# Experiment in all cases: cell count relative to DMSO control; melanoma cells; higher = more viable cells
# Settings in all cases: library dose: low library concentration; 72 h
# WM115 = tested on: WM115
# WM1716 = tested on: WM1716
# WM1745 = tested on: WM1745
# WM3526 = tested on: WM3526
# WM3619 = tested on: WM3619
# WM451Lu = tested on: WM451Lu
# 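Also: cell number obtained by counting DAPI-stained nuclei in high-throughput microscope images with image analysis software, screen run in 1,536-well plates.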
SMILES,cell count (WM115),cell count (WM1716),cell count (WM1745),cell count (WM3526),cell count (WM3619),cell count (WM451Lu)
"O=C(O)c1ccc2c(c1)nc(Nc1cccc(Cl)c1)c1ccncc12 + CN(C)S(=O)(=O)c1ccc2c(c1)/C(=C/c1cc3c([nH]1)CCCC3)C(=O)N2 [SU6656] (first compound 0.4 µM, partner dose 0.4 µM)",65.9%,94.7%,73.9%,73.3%,101%,83.9%
"O=C(O)[C@@H]1[O][Sb](=[O])([O][Sb]2(=[O])[O][C@H]([C@H](O)CO)[C@H](O)[C@H](C(=O)O)[O]2)[O][C@H]([C@H](O)CO)[C@@H]1O (stereo not given in full) [stibogluconate] + Cc1ccc(NC(=O)c2cccc(N(C)C)c2)cc1NC(=O)c1ccc(O)cc1 [ZM336372] (first compound 2 µM, partner dose 2 µM)",97%,103%,90.3%,103%,93%,111%
"O=C(O)[C@@H]1[O][Sb](=[O])([O][Sb]2(=[O])[O][C@H]([C@H](O)CO)[C@H](O)[C@H](C(=O)O)[O]2)[O][C@H]([C@H](O)CO)[C@@H]1O (stereo not given in full) [stibogluconate] + c1cc(-c2cnn3cc(-c4ccc(OCCN5CCCCC5)cc4)cnc23)ccn1 [Dorsomorphin] (first compound 2 µM, partner dose 0.4 µM)",110%,112%,101%,90.7%,116%,93.6%
"Cc1cc(N2CCOCC2)cc2[nH]c(-c3c(NC[C@@H](O)c4cccc(Cl)c4)cc[nH]c3=O)nc12 + O=C(Nc1ccccc1)c1cc([N+](=O)[O-])ccc1Cl [GW9662] (first compound 0.2 µM, partner dose 2 µM)",100%,104%,86.8%,104%,97.2%,123%
"O=C(Nc1ccccc1)c1cc([N+](=O)[O-])ccc1Cl + Cn1cc(/C=C2\C(=O)Nc3cccnc32)c2ccccc21 [GW441756] (first compound 2 µM, partner dose 0.4 µM)",115%,89.7%,89.9%,116%,107%,113%
"O=C(O)[C@@H]1[O][Sb](=[O])([O][Sb]2(=[O])[O][C@H]([C@H](O)CO)[C@H](O)[C@H](C(=O)O)[O]2)[O][C@H]([C@H](O)CO)[C@@H]1O (stereo not given in full) [stibogluconate] + Clc1ccc(Nc2nnc(Cc3ccncc3)c3ccccc23)cc1 [vatalanib] (first compound 2 µM, partner dose 2 µM)",107%,98.2%,93.5%,114%,106%,108%
"O=C(O)c1ccc2c(c1)nc(Nc1cccc(Cl)c1)c1ccncc12 + Cc1ccc(NC(=O)c2cccc(N(C)C)c2)cc1NC(=O)c1ccc(O)cc1 [ZM336372] (first compound 0.4 µM, partner dose 2 µM)",94.8%,90%,80.5%,78.6%,85.1%,85.2%
"O=C(Nc1cc(C(F)(F)F)cc(C(F)(F)F)c1)c1cc(Cl)ccc1O + O=S(=O)(c1ccccc1)N(CC(F)(F)F)c1ccc(C(O)(C(F)(F)F)C(F)(F)F)cc1 [T0901317] (first compound 0.016 µM, partner dose 1.4 µM)",102%,106%,81.9%,101%,121%,75.1%
"O=C(O)c1ccc2c(c1)nc(Nc1cccc(Cl)c1)c1ccncc12 + Cc1cc([N+](=O)[O-])ccc1NS(=O)(=O)c1cc(Cl)ccc1Cl [FH535] (first compound 0.4 µM, partner dose 1 µM)",77.9%,93.8%,94%,81.6%,120%,113%
"O=C(O)c1ccc2c(c1)nc(Nc1cccc(Cl)c1)c1ccncc12 + COCC[n+]1c2c(n(Cc3cnccn3)c1C)C(=O)c1ccccc1C2=O [YM155] (first compound 0.4 µM, partner dose 0.0004 µM)",96.9%,98.1%,116%,69.5%,101%,70.5%
"Cn1nnc2c(C(N)=O)ncn2c1=O [temozolomide] + Oc1cc(-c2nc(-c3ccccc3)[nH]c2-c2ccncc2)ccc1Cl [L779450] (first compound 2 µM, partner dose 0.2 µM)",80.9%,85.8%,104%,87.8%,115%,103%
"O=C(O)c1ccc2c(c1)nc(Nc1cccc(Cl)c1)c1ccncc12 + COc1cc(N2CCC(N3CCN(C)CC3)CC2)ccc1Nc1ncc(Cl)c(Nc2ccccc2S(=O)(=O)C(C)C)n1 [NVP-TAE684] (first compound 0.4 µM, partner dose 0.08 µM)",101%,58.9%,90.8%,91.3%,93%,84.6%
"O=C(O)c1ccc2c(c1)nc(Nc1cccc(Cl)c1)c1ccncc12 + COc1ccc(-c2ccc3c(N4CCOCC4)nc(N4C[C@@H](C)O[C@@H](C)C4)nc3n2)cc1CO [KU0063794] (first compound 0.4 µM, partner dose 0.02 µM)",112%,92.7%,89.4%,91.5%,111%,88%
"Cn1nnc2c(C(N)=O)ncn2c1=O [temozolomide] + Cn1cc(/C=C2\C(=O)Nc3cccnc32)c2ccccc21 [GW441756] (first compound 2 µM, partner dose 0.4 µM)",96.2%,101%,74.8%,97.3%,117%,115%
"O=C(O)c1ccc2c(c1)nc(Nc1cccc(Cl)c1)c1ccncc12 + N#Cc1c(O)c2c(-c3ccc(-c4ccccc4O)cc3)csc2[nH]c1=O [A769662] (first compound 0.4 µM, partner dose 2 µM)",93.6%,77.4%,89.6%,76.8%,114%,92.9%
"Cc1cc(N2CCOCC2)cc2[nH]c(-c3c(NC[C@@H](O)c4cccc(Cl)c4)cc[nH]c3=O)nc12 + C[C@@H]1CCN(C(=O)CC#N)C[C@@H]1N(C)c1ncnc2[nH]ccc12 [CP690550] (first compound 0.2 µM, partner dose 1 µM)",110%,90.9%,68.5%,122%,53.9%,112%
"O=C(Nc1cc(C(F)(F)F)cc(C(F)(F)F)c1)c1cc(Cl)ccc1O + CCN(CC)CCNC(=O)c1c(C)[nH]c(/C=C2\C(=O)Nc3ccc(F)cc32)c1C [sunitinib] (first compound 0.016 µM, partner dose 0.4 µM)",126%,93.2%,91.9%,104%,98.7%,91.3%
"O=C(Nc1cc(C(F)(F)F)cc(C(F)(F)F)c1)c1cc(Cl)ccc1O + O=C(Nc1ccccc1)c1cc([N+](=O)[O-])ccc1Cl [GW9662] (first compound 0.016 µM, partner dose 2 µM)",103%,105%,97.8%,86.7%,100%,95.7%
"O=C(O)[C@@H]1[O][Sb](=[O])([O][Sb]2(=[O])[O][C@H]([C@H](O)CO)[C@H](O)[C@H](C(=O)O)[O]2)[O][C@H]([C@H](O)CO)[C@@H]1O (stereo not given in full) [stibogluconate] + C[C@]1(c2nc3c(C(N)=O)cccc3[nH]2)CCCN1 [Veliparib] (first compound 2 µM, partner dose 1.4 µM)",95.7%,90.5%,95.8%,105%,103%,119%
"O=C(O)[C@@H]1[O][Sb](=[O])([O][Sb]2(=[O])[O][C@H]([C@H](O)CO)[C@H](O)[C@H](C(=O)O)[O]2)[O][C@H]([C@H](O)CO)[C@@H]1O (stereo not given in full) [stibogluconate] + CN(C)S(=O)(=O)c1ccc2c(c1)/C(=C/c1cc3c([nH]1)CCCC3)C(=O)N2 [SU6656] (first compound 2 µM, partner dose 0.4 µM)",87.3%,99.6%,92.9%,105%,132%,121%
"O=C(Nc1cc(C(F)(F)F)cc(C(F)(F)F)c1)c1cc(Cl)ccc1O + CCc1ccc(CCOc2ccc(CC3SC(=O)NC3=O)cc2)nc1 [pioglitazone] (first compound 0.016 µM, partner dose 2 µM)",105%,97.8%,84%,105%,86.2%,86.9%
"O=C(O)[C@@H]1[O][Sb](=[O])([O][Sb]2(=[O])[O][C@H]([C@H](O)CO)[C@H](O)[C@H](C(=O)O)[O]2)[O][C@H]([C@H](O)CO)[C@@H]1O (stereo not given in full) [stibogluconate] + Nc1cccc2c1CN(C1CCC(=O)NC1=O)C2=O [lenalidomide] (first compound 2 µM, partner dose 1 µM)",98.9%,107%,91.9%,95.3%,93.8%,126%
"O=C(Nc1ccccc1)c1cc([N+](=O)[O-])ccc1Cl + CCCCCCCCCCCC1=C(O)C(=O)C=C(O)C1=O [Embelin] (first compound 2 µM, partner dose 1.2 µM)",96%,114%,87.4%,82.8%,93.9%,108%
"O=C(Nc1cc(C(F)(F)F)cc(C(F)(F)F)c1)c1cc(Cl)ccc1O + O=C(O)c1ccc(-c2c[nH]c3ncc(-c4ccccc4)cc23)cc1C1CCCC1 [GSK650394] (first compound 0.016 µM, partner dose 0.16 µM)",91.2%,96.5%,112%,107%,96.5%,101%
"O=C(O)[C@@H]1[O][Sb](=[O])([O][Sb]2(=[O])[O][C@H]([C@H](O)CO)[C@H](O)[C@H](C(=O)O)[O]2)[O][C@H]([C@H](O)CO)[C@@H]1O (stereo not given in full) [stibogluconate] + COc1ccc(-c2ccc3c(N4CCOCC4)nc(N4C[C@@H](C)O[C@@H](C)C4)nc3n2)cc1CO [KU0063794] (first compound 2 µM, partner dose 0.02 µM)",94.8%,102%,98.3%,92.2%,80.4%,116%
